# Data from PubChem BioAssay (Tox21).
# “And” between values parts separate entries of the source, which are not always exact repeats. Equal values may be shown once. The inconclusive results got no clear call from the source; some entries with a clear call stand among them for comparison. For part of these data: A potency beside an inconclusive call is a rough fit, not a confirmed value. The source made the active and inactive calls. Unless noted, the call rests on the fitted dose curve; in most records, active means well fitted curve in the direction sought with a large enough effect in the repeat runs; inconclusive means weak or mixed curves; inactive means no such curve, though single readings can be large; an effect the other way counts as inactive or inconclusive.
# Legend:
# [1] = qHTS assay to identify small molecule antagonists of the retinoid acid receptor (RAR) signaling pathway - cell viability counter screen (AID 1159551); further: nearly all actives have a fitted effect of over 35% in size
# Outline: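 C3RL4 RARE-luciferase cells, 1,000/well, incubated overnight, then dosed with compound plus 1 uM retinol (final). After 6 hr at 37 C, viability read by CellTiter-Glo ATP luminescence following 30 min at room temperature.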
# [2] = qHTS assay to identify small molecule agonists of the retinoic acid receptor (RAR) signaling pathway (AID 1159553); details: C3RL4 RARE luciferase reporter, agonist, 6 h; series mostly up to 73.3 µM
# Outline: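 C3RL4 RARE-luciferase cells were seeded at 1,000/well and grown overnight at 37 C, then exposed to compounds for 6 hr at 37 C, 5% CO2. Luciferase reagent was added and luminescence was read after 30 min at room temperature.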
# [3] = qHTS assay to identify small molecule antagonists of the estrogen related receptor (ERR) signaling pathway from Tox21 library - cell viability counter screen (AID 1224834); further: nearly all actives have a fitted effect of over 30% in size
# Outline: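 ERR reporter cells, 2,000 per well, rested 6 h, then exposed to compound in DMSO for 17.5 hours at 37 C. Viability read as fluorescence after 30 min with CellTiter-Fluor.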
# [4] = qHTS assay to identify small molecule agonists of the constitutive androstane receptor (CAR) signaling pathway - cell viability counter screen (AID 1224836); further: nearly all actives have a fitted effect of over 45% in size
# Outline: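 Multiplexed viability check: HepG2-CYP2B6-hCAR cells, 15-point compound dosing, 0.75 uM PK11195 final, 23 h at 37 C, CellTiter-Fluor fluorescence.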
# [5] = qHTS assay to identify small molecule antagonists of the constitutive androstane receptor (CAR) signaling pathway - cell viability counter screen (AID 1224837); further: nearly all actives have a fitted effect of over 45% in size
# Outline: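 HepG2 cells stably carrying hCAR and CYP2B6-2.2kb reporter, stimulated with 50 nM CITCO and compounds at 15 concentrations for 23 h at 37 C. Viability measured by CellTiter-Fluor fluorescence.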
# [6] = qHTS assay to identify small molecule antagonists of the estrogen related receptor signaling pathway with the pleiotropic PPARgamma coactivator (PGC) from Tox21 10K library - cell viability counter screen (AID 1224840; active means well fitted cell-killing curve with a large enough effect in the repeat runs, not every such curve was filed as active; inconclusive means weak or mixed curves, or effect the other way; inactive means no such curve, though single readings can be large or run the other way; further: nearly all actives have a fitted effect of over 40% in size)
# Outline: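 PGC/ERR cells (2,000/well) plated 6 h, then compound-treated for 17.5 h at 37 C. Viability measured by CellTiter-Fluor fluorescence after 30 min at 37 C, multiplexed with the pathway assay.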
# [7] = target: Nuclear receptor subfamily 1 group I member 3 (Homo sapiens) (UniProt Q14994); test: qHTS assay to identify small molecule antagonists of the constitutive androstane receptor (CAR) signaling pathway (AID 1224838); further: nearly all actives have a fitted effect of over 40% in size
# Outline: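 HepG2 cells stably carrying hCAR and a CYP2B6-2.2kb luciferase reporter, seeded 4 hrs before compound (15 concentrations). Stimulated with 50 nM CITCO for 24 hr at 37 C. ONE-Glo luminescence read after 30 min at room temperature.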
# [8] = qHTS assay to identify small molecule antagonists of the estrogen related receptor signaling pathway with the pleiotropic PPARgamma coactivator (PGC) from Tox21 10K library (AID 1224841; call rule not given here; further: actives are mostly falling curves and most rising ones were filed inactive; nearly all actives have a fitted effect of over 50% in size)
# Outline: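 PGC/ERR cell line, 2,000 cells/well, pre-incubated 6 hours at 37 C, then exposed to compounds for 18 hours at 37 C; luciferase read with One-Glo luminescence after 30 min at room temperature.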
# [9] = qHTS assay to identify small molecule agonists of the estrogen related receptor signaling pathway with the pleiotropic PPARgamma coactivator (PGC) from Tox21 10K library (AID 1224842); further: nearly all actives have a fitted effect of over 15% in size
# Outline: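 PGC/ERR reporter cells (NTP line) were seeded 2,000 per well, rested 6 h at 37 C/5% CO2, then pin-dosed with compounds in DMSO for 18 h at 37 C; luciferase read by One-Glo luminescence after 30 min at room temperature.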
# [10] = qHTS assay to identify small molecule agonists of the hypoxia (HIF-1) signaling pathway - cell viability counter screen (AID 1224844; calls by dose curve; further: nearly all actives have a fitted effect of over 50% in size)
# Outline: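 HRE-bla ME-180 cells, 2,000/well in 0.5% dialyzed FBS medium, treated 17 h at 37C with compounds. Viability read in the same wells as the bla reporter, by CellTiter-Glo luminescence after 30 min at room temperature.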
# Potency means the concentration at half of the fitted maximal effect; tags describe the fitted curve by direction and shape.
# Sequence of UniProt Q14994 (Q14994 whole entry, looked up): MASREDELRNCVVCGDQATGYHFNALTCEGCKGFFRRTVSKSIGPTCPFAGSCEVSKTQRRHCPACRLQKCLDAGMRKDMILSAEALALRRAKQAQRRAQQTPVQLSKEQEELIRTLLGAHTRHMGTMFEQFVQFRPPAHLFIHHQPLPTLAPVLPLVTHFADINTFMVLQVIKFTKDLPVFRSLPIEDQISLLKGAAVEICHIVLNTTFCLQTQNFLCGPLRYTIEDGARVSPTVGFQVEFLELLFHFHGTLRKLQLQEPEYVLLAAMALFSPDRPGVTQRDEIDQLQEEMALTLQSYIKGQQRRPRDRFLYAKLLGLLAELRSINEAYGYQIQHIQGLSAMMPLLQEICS
SMILES,Potency [1],Potency [2],Potency [3],Potency [4],Potency [5],Potency [6],Potency [7],Potency [8],Potency [9],Potency [10]
CCCCC(CC)CN=C(N)NC(N)=NCCCCCCN=C(N)NC(N)=NCC(CC)CCCC (stereo not given),active: 29.8 µM,"inconclusive: 26.6 µM [inhibitor, partial curve]",active: 11.9 µM,active: 26.6 µM,active: 23.7 µM,active: 16.8 µM,–,–,–,–
CC(CN1c2ccccc2Sc2ccccc21)N(C)C (stereo not given),"inconclusive: 61.8 µM [cytotoxic, partial curve, poor fit]","inconclusive: 27.6 µM [inhibitor, partial curve, poor fit] and inconclusive: 68.6 µM [inhibitor] and inconclusive: 33.5 µM [inhibitor, partial curve, poor fit]",inconclusive: 33.5 µM [cytotoxic],"inconclusive: 69.3 µM [cytotoxic, single point] and active: 54.5 µM and inconclusive: 29.8 µM [cytotoxic, partial curve, poor fit]",–,"inconclusive: 69.3 µM [cytotoxic] and inconclusive: 48.6 µM [cytotoxic, partial curve] and inconclusive: 33.5 µM [cytotoxic, single point]","inconclusive: 77.7 µM [inhibitor, single point] and inconclusive: 77 µM [inhibitor, single point]",inconclusive: 69.3 µM,inconclusive: 68.6 µM [activator],"inconclusive: 34.7 µM [cytotoxic, partial curve] and inconclusive: 21.3 µM [cytotoxic, partial curve]"
